Out of some 310,000 compounds screened, about 2,200 (0.71%) showed an effect of 50% or more. Effects have a minus sign here. Some of the results follow.
Target: human ether-à-go-go-related gene (hERG) potassium channel (human, UniProt Q12809)
Assay: primary screen, population patch clamp on CHO cells stably expressing hERG

human ether-à-go-go-related gene (hERG) potassium channel, sequence (Q12809 whole entry, looked up): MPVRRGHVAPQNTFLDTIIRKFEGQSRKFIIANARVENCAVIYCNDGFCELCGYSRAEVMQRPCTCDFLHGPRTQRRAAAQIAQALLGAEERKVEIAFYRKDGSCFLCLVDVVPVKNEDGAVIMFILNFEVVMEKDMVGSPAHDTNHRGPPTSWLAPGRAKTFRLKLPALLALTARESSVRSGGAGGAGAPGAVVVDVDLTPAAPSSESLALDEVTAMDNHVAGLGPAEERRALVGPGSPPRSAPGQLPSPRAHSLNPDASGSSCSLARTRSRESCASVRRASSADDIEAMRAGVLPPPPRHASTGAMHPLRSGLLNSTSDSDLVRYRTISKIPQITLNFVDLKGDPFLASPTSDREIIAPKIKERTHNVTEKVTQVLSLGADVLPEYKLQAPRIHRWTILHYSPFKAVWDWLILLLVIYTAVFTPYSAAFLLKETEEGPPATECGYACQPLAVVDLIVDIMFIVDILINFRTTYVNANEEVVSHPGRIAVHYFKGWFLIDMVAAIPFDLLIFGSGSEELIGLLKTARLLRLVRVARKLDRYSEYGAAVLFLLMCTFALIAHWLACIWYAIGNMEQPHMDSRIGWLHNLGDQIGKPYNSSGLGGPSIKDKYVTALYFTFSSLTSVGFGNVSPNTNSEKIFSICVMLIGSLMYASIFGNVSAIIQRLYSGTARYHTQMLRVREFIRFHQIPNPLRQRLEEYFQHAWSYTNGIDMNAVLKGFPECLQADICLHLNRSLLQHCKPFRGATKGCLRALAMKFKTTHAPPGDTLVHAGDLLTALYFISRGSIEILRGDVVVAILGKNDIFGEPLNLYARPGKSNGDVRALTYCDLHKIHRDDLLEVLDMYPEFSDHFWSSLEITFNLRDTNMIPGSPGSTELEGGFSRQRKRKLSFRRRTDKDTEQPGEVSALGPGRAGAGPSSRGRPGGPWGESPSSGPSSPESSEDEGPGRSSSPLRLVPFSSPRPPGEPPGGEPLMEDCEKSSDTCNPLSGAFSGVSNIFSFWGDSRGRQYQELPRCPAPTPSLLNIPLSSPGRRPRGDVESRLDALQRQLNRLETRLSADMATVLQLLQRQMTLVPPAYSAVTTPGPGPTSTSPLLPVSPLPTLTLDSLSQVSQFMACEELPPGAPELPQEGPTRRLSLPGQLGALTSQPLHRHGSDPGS

SMILES | hERG current change (%, negative = inhibition) at 1uM [%]
CN(CCOC(=O)c1ccc2c(c1)OCCO2)C(C)(C)C.Cl | 18.1
O=Cc1cn(CCOc2ccccc2F)c2ccccc12 | 11
Cc1nn(C)c(C)c1NC(=O)C12CC3CC(CC(C3)C1)C2 | 6.27
Oc1ccccc1C1=NCCNC(C(F)(F)F)=C1 | 8.12
COc1ccc(-c2cn(CCO)c(CCN)n2)cc1 | 7.7
Cc1cc(C)cc(NS(=O)(=O)c2ccc(-c3cnc(C4CC4)o3)cc2)c1 | 14.1
O=C(O)/C(=C\c1ccco1)NC(=O)c1cccc2ccccc12 | -0.725
O=S1(=O)N=C(Nc2ccc(N3CCOCC3)cc2)c2ccccc21 | -10.3
Cc1cccc(C)c1OCC(=O)Nc1ccncc1 | 11.5
COCCNC(=O)C(c1ccc(Cl)cc1)N(C(=O)CCC(=O)Nc1ccccn1)C1CCCC1 (centres unmarked) | 8.06
COc1ccc(CNn2c(-c3ccccc3F)nc3ccccc3c2=O)cc1OC | 20.2
CC(=O)N1CCN(C2c3cccc4cccc(c34)C2NS(=O)(=O)c2ccccc2)CC1 (centres unmarked) | 7.67
Cc1ccc(N(CC(=O)NCc2ccncc2)S(C)(=O)=O)cc1 | 15.4
CCn1c(C)c(C)c2cc(C(=O)NCCN3CCOCC3)ccc21 | 0.601
COc1ccccc1CNC(=O)C(C)n1nc(C)n2c(cc3occc32)c1=O (centres unmarked) | -2.98
Cc1ccccc1C(=O)N(C)c1ccccc1C(=O)NCc1ccccc1 | -8.7
O=c1nccc(N/N=C/c2ccccc2)[nH]1 | 10.9
O=[N+]([O-])c1ccc(C(O)C[n+]2ccccc2)cc1.[I-] (centres unmarked) | 15
CC(NS(C)(=O)=O)C(c1cccs1)N1CCN(c2ccc(F)cc2)CC1 (centres unmarked) | 4.48
COc1cc(OC)c2nc(C)c3c(c2c1)N(c1ccc(O)cc1)CC3 | -57.2
O=c1[nH]c(C2CCN(S(=O)(=O)c3ccc4c(c3)OCCO4)CC2)nc2c1nnn2Cc1ccc(F)cc1 | 22
OC1(c2ccc(Cl)cc2)CCN(Cc2c[nH]c3ccccc23)CC1 | -27.6
COC(=O)c1c(NC(=O)C(=O)N2CCCCC2)sc2c1CC(C)(C)OC2 | 2.15

SMILES | hERG current change (%, negative = inhibition) at 1uM [%]
Cc1ccc(-c2nnn(CC(=O)NC3CCN(Cc4ccccc4)CC3)n2)cc1 | 6.56
COc1ccc(-c2oc3ccc(N4CCOCC4)cc3c2C#CCO)cc1 | 11.2
Cl.O=C(CN1CCC(NC(=O)c2ccccc2Cl)CC1)NCc1ccco1 | 8.06
Cc1cc(C)c(NC(=O)CSc2nc3ccc(NC(=O)CSc4nnnn4-c4ccccc4)cc3s2)c(C)c1 | 10.5
CC(C)N(CC(O)COc1ccc(CC(N)=O)cc1)CC(O)COc1ccc(CC(N)=O)cc1 (centres unmarked) | 13
CCOc1ccccc1OCC(O)CNC (centres unmarked) | 2.98
CC(C)CC(=O)Nc1ccc(C(=O)COC(=O)Cc2n[nH]c(=O)c3ccccc23)cc1 | -0.765
CNC(=O)c1cn(-c2ccc(Cl)cc2)c(=O)c2ccccc12 | 8.27
Cc1ccsc1CCNC(=O)C1CCC(=O)N(CCc2cccc(F)c2)C1 (centres unmarked) | -17.8
Cc1cc(S(=O)(=O)Nc2ccc(C(=O)NCC(c3ccccc3)N(C)C)cc2)ccc1F (centres unmarked) | -8.56
CCn1c(=O)c2sccc2n(Cc2ccc(C)cc2)c1=O | 19.5
O=S(=O)(c1ccc(-c2csc(-c3cccnc3)n2)cc1)N1CCCCC1 | 12.3
C=CCOc1c(Cl)cc(CNCCC)cc1Cl.Cl | -0.476
O=C(c1ccc(F)cc1F)N1CCN(c2ccccn2)CC1 | 6.22
CCN(Cc1ccccc1)C(=O)CSc1ncn[nH]1 | 17.3
O=S(=O)(N/N=C\c1c(F)cccc1Cl)c1ccc(Cl)cc1 | 8.01
COc1ccccc1NC(=S)N(Cc1ccco1)Cc1cc2cc(C)c(C)cc2[nH]c1=O | 1.04
Cc1cc(C)c[n+](CC(=O)c2ccc(-c3ccccc3)cc2)c1.[Br-] | 2.96
CCn1c(C)csc1=NC(=O)c1ccccc1O | 8.67
O=C1c2ccc3c4c(ccc(c24)C(=O)N1c1ccc2ccccc2c1)CC3 | 4.92
COc1ccc(Cl)cc1NC(=O)c1ccco1 | 4.11
O=C(NC(C(=O)N/N=C/c1ccccn1)c1n[nH]c(=O)c2ccccc12)c1ccccc1 (centres unmarked) | 0.335
CCn1c(SCC(=O)Nc2cccc(F)c2)nc2c(c1=O)SC(C)C2 (centres unmarked) | -11

SMILES | hERG current change (%, negative = inhibition) at 1uM [%]
Cc1cccc(Oc2nc3ccccn3c(=O)c2/C=C(\C#N)C(=O)NC2CCS(=O)(=O)C2)c1 (centres unmarked) | 10.2
O=C1C2CCN(CC2)C1Cc1ccccc1O (centres unmarked) | 12
CCC(C)(CC(=O)Nc1nccs1)c1ccccc1 (centres unmarked) | 14.5
COc1cc2sc(C)nc2c2ccccc12 | 13
COc1cc(C)ccc1OCc1cc(C(=O)N2C[C@H]3CC[C@H]2C3)no1 | 10.9
COc1ccc(CNC(=O)CN(Cc2ccc(OC)cc2)C(=O)c2csnn2)cc1 | -7.34
CCOc1cccc(=O)c2c(C)n(CC(=O)c3ccccc3)c(C)c12 | 8.74
O=C(c1ccc(Cl)c(NC2=NC3CS(=O)(=O)CC3S2)c1)N1CCN(c2ccccc2)CC1 (centres unmarked) | 15.4
CCOc1ccc(NC(=O)CN(C)C(=O)c2cc([N+](=O)[O-])ccc2N2CCCCC2)cc1OCC | 8.33
COc1ccc(NC(=O)CSc2nnnn2Cc2ccccc2)cc1 | 4.53
CC1CC(OCC(O)C[N+]2(C)CCOCC2)CC(C)(C)C1.[I-] (centres unmarked) | 15
CC(=O)c1ccc(NC(=O)CCn2c(=O)oc3ccccc32)cc1 | 17.8
C=CCn1c(SCC(=O)NC2(C#N)CCCCC2)nnc1-c1ccncc1 | 3.96
C=CCn1c(CCSCc2ccccc2)n[nH]c1=S | 10.2
COc1cccc(N2CCN(C(=O)/C=C/c3ccco3)CC2)c1 | -2.01
Cc1nc2cc(C(=O)O)ccc2s1 | 12.1
Cc1ccc(-c2nc(CSCC(=O)N3CCOCC3)c(C)o2)cc1 | -2.76
COc1cc(C(C)=O)ccc1OCC(O)CN1CCN(c2cc(C)cc(C)c2)CC1 (centres unmarked) | -10.2
COCCC(=O)N1CCC(Oc2ccc(C(=O)NCc3ncc(C)[nH]3)cc2)CC1 | 11.6
O=C(NCc1ccccn1)C1CCN(S(=O)(=O)N2CCCCC2)CC1 | 11.2
CCOC(=O)Cc1cc(=O)n2[nH]c(-c3ccccc3)c(-c3ccccc3)c2n1 | 16
O=C(CCC1CCCN(C(=O)c2ccc3c(c2)OCCO3)C1)NCc1ccccc1F (centres unmarked) | 6.33
COC(=O)c1c(O)cc(C(C)(C)C)n(-c2ccccc2)c1=O | 4.05

SMILES | hERG current change (%, negative = inhibition) at 1uM [%]
Cc1cccc(NC(=O)CN2C(=O)N/C(=C\c3cccn3-c3cccc(C(=O)O)c3)C2=O)c1 | 13.8
COc1ccc(CCC(=O)OCC(=O)NCc2ccccc2)cc1 | 12.4
CCCCC1CCC(C(=O)OCC(=O)N(CCOC)c2c(N)n(Cc3ccccc3)c(=O)[nH]c2=O)CC1 (centres unmarked) | 12.9
CCCCN(C(=O)c1ccc([N+](=O)[O-])o1)c1c(N)n(CC(C)C)c(=O)[nH]c1=O | 0.207
COc1ccc(S(=O)(=O)N(CC(=O)NC(C)C)Cc2ccccc2)cc1 | 11.8
COC(=O)c1c(SCC(=O)Nc2ccc(C)c(C)c2)nc(=O)[nH]c1C | 5.45
COCCN(C(=S)Nc1ccc(C)c(C)c1)C(C)c1ccco1 (centres unmarked) | 4.68
C/C=C\C=C\C(=O)N1CC2(CC(c3cccc(NC(=O)/C(C)=C\C)c3)=NO2)C[C@H]1C(N)=O (some centres unmarked) | 9.8
CC(C(=O)NCC1CCCO1)N1C(=O)C2C3CC(C(Br)C3Br)C2C1=O (centres unmarked) | 2.97
Cc1ccc(C(=O)OCc2nc3ccsc3c(=O)[nH]2)o1 | 9.14
COc1ccc(NC(=O)CC2C(=O)N(Cc3ccco3)C(=S)N2C(C)C)cc1 (centres unmarked) | -6.03
O=C(Nc1ccccc1N1CCCC1)c1ccccc1Cl | 9.44
CCn1nnnc1SCC(=O)N1CCN(Cc2ccc3c(c2)OCCO3)CC1 | 11.7
COC(=O)CN(C#N)c1nc(SC)nc(N(C)C)n1 | 7.99
Cc1ccc(S(=O)(=O)NCc2ccc(C(=O)NCCCN3CCN(C)CC3)cc2)cc1 | 13.4
O=C(COC(=O)c1n[nH]c2ccccc12)NC(=O)NC1CCCC1 | 7.24
O=C(CCS(=O)(=O)c1ccccc1)NC12CC3CC(CC(C3)C1)C2 | 12.3
CCOC(=O)CSc1nnc(NC(=O)c2cccc(S(=O)(=O)N3CCCCCC3)c2)s1 | 7.18
COc1ccccc1NC(=O)CSc1nnc(C)o1 | 11.4
CCOc1cccc(NC(=O)CSc2nncn2N)c1 | 9.83
